# Some of the results follow.
# B1: F17aG (Escherichia coli), Q99003 (protein)
# chain: MTNFYKVFLAVFILVCCNISQAAVSFIGSTENDVGPSLGSYSRTHAMDNLPFVYDTRNKIGYQNANVWHISKGFCVGLDGKVDLPVVGSLDGQSIYGLTEEVGLLIWMGDTKYSRGTAMSGNSWENVFSGWCVGANTASTQGLSVRVTPVILKRNSSARYSVQKTSIGSIRMRPYNGSSAGSVQTTVNFSLNPFTLNDTVTSCRLLTPSAVNVSLAAISAGQLPSSGDEVVAGTTSLKLQCDAGVTVWATLTDATTPSNRSDILTLTGASTATGVGLRIYKNTDSTPLKFGPDSPVKGNENQWQLSTGTETSPSVRLYVKYVNTGEGINPGTVNGISTFTFSYQ
# Experiments:
# Experiment in all cases: glycan array binding signal (z-score within array); higher = stronger binding
# Settings in all cases: glycan notation: IUPAC condensed, linker removed
# [1] = target: Neu5Ac(a2-6)Gal(b1-3)GlcNAc(b1-3)[Gal(b1-4)GlcNAc(b1-6)]Gal(b1-4)Glc
# Summary of the method: (§1)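 Glycan array data were curated from 3228 arrays in the Consortium for Functional Glycomics database and kept only where the protein sequence was available. Glycan names were converted to IUPAC-condensed notation, and columns mapping to the same glycan were averaged. The binding signal is a within-array Z-score, averaged across arrays of the same protein sequence at different concentrations or buffers and across linkers. Negative Z-scores can be read as non-binding.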
# [2] = target: Neu5Ac(a2-6)Gal(b1-4)Glc
# Summary of the method: as §1
# [3] = target: Neu5Ac(a2-6)Gal(b1-4)GlcNAc
# Summary of the method: as §1
# [4] = target: Neu5Ac(a2-6)Gal(b1-4)GlcNAc(b1-2)Man(a1-3)Man(b1-4)GlcNAc(b1-4)GlcNAc
# Summary of the method: as §1
# [5] = target: Neu5Ac(a2-6)Gal(b1-4)GlcNAc(b1-2)Man(a1-3)[Gal(b1-4)GlcNAc(b1-2)Man(a1-6)]Man(b1-4)GlcNAc(b1-4)GlcNAc
# Summary of the method: as §1
# [6] = target: Neu5Ac(a2-6)Gal(b1-4)GlcNAc(b1-2)Man(a1-3)[GlcNAc(b1-2)Man(a1-6)]Man(b1-4)GlcNAc(b1-4)GlcNAc
# Summary of the method: as §1
# [7] = target: Neu5Ac(a2-6)Gal(b1-4)GlcNAc(b1-2)Man(a1-3)[GlcNAc(b1-2)Man(b1-4)GlcNAc(b1-2)Man(a1-6)]Man(b1-4)GlcNAc(b1-4)GlcNAc
# Summary of the method: as §1
# [8] = target: Neu5Ac(a2-6)Gal(b1-4)GlcNAc(b1-2)Man(a1-3)[Man(a1-6)]Man(b1-4)GlcNAc(b1-4)GlcNAc
# Summary of the method: as §1
# [9] = target: Neu5Ac(a2-6)Gal(b1-4)GlcNAc(b1-2)Man(a1-3)[Neu5Ac(a2-6)Gal(b1-4)GlcNAc(b1-2)Man(a1-6)]Man(b1-4)GlcNAc(b1-4)GlcNAc
# Summary of the method: as §1
# [10] = target: Neu5Ac(a2-6)Gal(b1-4)GlcNAc(b1-2)Man(a1-6)Man(b1-4)GlcNAc(b1-4)GlcNAc
# Summary of the method: as §1
# [11] = target: Neu5Ac(a2-6)Gal(b1-4)GlcNAc(b1-2)Man(a1-6)[Gal(b1-4)GlcNAc(b1-2)Man(a1-3)]Man(b1-4)GlcNAc(b1-4)GlcNAc
# Summary of the method: as §1
# [12] = target: Neu5Ac(a2-6)Gal(b1-4)GlcNAc(b1-2)Man(a1-6)[GlcNAc(b1-2)Man(a1-3)]Man(b1-4)GlcNAc(b1-4)GlcNAc
# Summary of the method: as §1
# [13] = target: Neu5Ac(a2-6)Gal(b1-4)GlcNAc(b1-2)Man(a1-6)[Man(a1-3)]Man(b1-4)GlcNAc(b1-4)GlcNAc
# Summary of the method: as §1
# [14] = target: Neu5Ac(a2-6)Gal(b1-4)GlcNAc(b1-3)Gal(b1-3)GlcNAc
# Summary of the method: as §1
# [15] = target: Neu5Ac(a2-6)Gal(b1-4)GlcNAc(b1-3)Gal(b1-4)GlcNAc
# Summary of the method: as §1
# [16] = target: Neu5Ac(a2-6)Gal(b1-4)GlcNAc(b1-3)Gal(b1-4)GlcNAc(b1-3)Gal(b1-4)GlcNAc
# Summary of the method: as §1
# [17] = target: Neu5Ac(a2-6)Gal(b1-4)GlcNAc(b1-3)Gal(b1-4)[Fuc(a1-3)]GlcNAc(b1-3)Gal(b1-4)[Fuc(a1-3)]GlcNAc
# Summary of the method: as §1
# [18] = target: Neu5Ac(a2-6)Gal(b1-4)GlcNAc(b1-3)GalNAc
# Summary of the method: as §1
# [19] = target: Neu5Ac(a2-6)Gal(b1-4)GlcNAc6S
# Summary of the method: as §1
# [20] = target: Neu5Ac(a2-6)GalNAc
# Summary of the method: as §1
# [21] = target: Neu5Ac(a2-6)GalNAc(b1-4)GlcNAc
# Summary of the method: as §1
# [22] = target: Neu5Ac(a2-6)GlcNAc(b1-4)GlcNAc
# Summary of the method: as §1
# [23] = target: Neu5Ac(a2-6)GlcNAc(b1-4)GlcNAc(b1-4)GlcNAc
# Summary of the method: as §1
# [24] = target: Neu5Ac(a2-8)Neu5Ac
# Summary of the method: as §1
# [25] = target: Neu5Ac(a2-8)Neu5Ac(a2-3)Gal(b1-3)GalNAc(b1-4)[Neu5Ac(a2-8)Neu5Ac(a2-3)]Gal(b1-4)Glc
# Summary of the method: as §1
# [26] = target: Neu5Ac(a2-8)Neu5Ac(a2-3)Gal(b1-4)Glc
# Summary of the method: as §1
# [27] = target: Neu5Ac(a2-8)Neu5Ac(a2-3)[Gal(b1-3)GalNAc(b1-4)]Gal(b1-4)Glc
# Summary of the method: as §1
# [28] = target: Neu5Ac(a2-8)Neu5Ac(a2-3)[GalNAc(b1-4)]Gal(b1-4)Glc
# Summary of the method: as §1
# [29] = target: Neu5Ac(a2-8)Neu5Ac(a2-8)Neu5Ac
# Summary of the method: as §1
# [30] = target: Neu5Ac(a2-8)Neu5Ac(a2-8)Neu5Ac(a2-3)Gal(b1-4)Glc
# Summary of the method: as §1
# [31] = target: Neu5Ac(a2-8)Neu5Ac(a2-8)Neu5Ac(a2-3)[GalNAc(b1-4)]Gal(b1-4)Glc
# Summary of the method: as §1
# [32] = target: Neu5Ac(a2-8)Neu5Ac(a2-8)Neu5Ac(a2-8)Neu5Ac(a2-3)[GalNAc(b1-4)]Gal(b1-4)Glc
# Summary of the method: as §1
# [33] = target: Neu5Ac(b1-6)GalNAc
# Summary of the method: as §1
# [34] = target: Neu5Ac(b2-6)Gal(b1-4)GlcNAc
# Summary of the method: as §1
# [35] = target: Neu5Ac(b2-6)GalNAc
# Summary of the method: as §1
# [36] = target: Neu5Ac9Ac(a2-3)Gal(b1-3)GlcNAc
# Summary of the method: as §1
# [37] = target: Neu5Ac9Ac(a2-3)Gal(b1-4)GlcNAc
# Summary of the method: as §1
# [38] = target: Neu5Ac9Ac(a2-6)Gal(b1-4)GlcNAc
# Summary of the method: as §1
# [39] = target: Neu5Gc(a2-3)Gal(b1-3)GlcNAc
# Summary of the method: as §1
# [40] = target: Neu5Gc(a2-3)Gal(b1-3)[Fuc(a1-4)]GlcNAc
# Summary of the method: as §1
# [41] = target: Neu5Gc(a2-3)Gal(b1-4)Glc
# Summary of the method: as §1
# [42] = target: Neu5Gc(a2-3)Gal(b1-4)GlcNAc
# Summary of the method: as §1
# [43] = target: Neu5Gc(a2-3)Gal(b1-4)[Fuc(a1-3)]GlcNAc
# Summary of the method: as §1
# [44] = target: Neu5Gc(a2-6)Gal(b1-4)GlcNAc
# Summary of the method: as §1
# [45] = target: Neu5Gc(a2-6)GalNAc
# Summary of the method: as §1
# [46] = target: Neu5Gc(b2-6)Gal(b1-4)GlcNAc
# Summary of the method: as §1
binder,measurement,setting,value
B1,glycan array binding signal (z-score),[1],-0.181
same,glycan array binding signal (z-score),[2],-0.255
same,glycan array binding signal (z-score),[3],-0.158
same,glycan array binding signal (z-score),[4],-0.177
same,glycan array binding signal (z-score),[5],-0.179
same,glycan array binding signal (z-score),[6],-0.159
same,glycan array binding signal (z-score),[7],-0.141
same,glycan array binding signal (z-score),[8],-0.154
same,glycan array binding signal (z-score),[9],-0.153
same,glycan array binding signal (z-score),[10],-0.167
same,glycan array binding signal (z-score),[11],-0.147
same,glycan array binding signal (z-score),[12],-0.156
same,glycan array binding signal (z-score),[13],-0.153
same,glycan array binding signal (z-score),[14],-0.16
same,glycan array binding signal (z-score),[15],-0.239
same,glycan array binding signal (z-score),[16],-0.134
same,glycan array binding signal (z-score),[17],-0.253
same,glycan array binding signal (z-score),[18],-0.17
same,glycan array binding signal (z-score),[19],-0.2
same,glycan array binding signal (z-score),[20],0.165
same,glycan array binding signal (z-score),[21],-0.218
same,glycan array binding signal (z-score),[22],-0.171
same,glycan array binding signal (z-score),[23],-0.161
same,glycan array binding signal (z-score),[24],-0.078
same,glycan array binding signal (z-score),[25],-0.145
same,glycan array binding signal (z-score),[26],-0.254
same,glycan array binding signal (z-score),[27],-0.053
same,glycan array binding signal (z-score),[28],-0.256
same,glycan array binding signal (z-score),[29],-0.234
same,glycan array binding signal (z-score),[30],-0.25
same,glycan array binding signal (z-score),[31],-0.248
same,glycan array binding signal (z-score),[32],-0.227
same,glycan array binding signal (z-score),[33],-0.34
same,glycan array binding signal (z-score),[34],0.235
same,glycan array binding signal (z-score),[35],-0.164
same,glycan array binding signal (z-score),[36],-0.156
same,glycan array binding signal (z-score),[37],-0.164
same,glycan array binding signal (z-score),[38],-0.185
same,glycan array binding signal (z-score),[39],-0.049
same,glycan array binding signal (z-score),[40],-0.259
same,glycan array binding signal (z-score),[41],-0.243
same,glycan array binding signal (z-score),[42],-0.191
same,glycan array binding signal (z-score),[43],-0.246
same,glycan array binding signal (z-score),[44],-0.265
same,glycan array binding signal (z-score),[45],-0.233
same,glycan array binding signal (z-score),[46],-0.172

# From the supplement of paper PMC8728848
